Laboratory results published in paper PMC4336329 (PLoS ONE, 2015).
The campaign covered roughly 310,000 compounds. About 2,200 (0.71%) showed an effect of 50% or more. Effects have a minus sign here. The list shows a part of the results.

The compounds below were run against human ether-à-go-go-related gene (hERG) potassium channel (human, UniProt Q12809) (assay: primary screen, population patch clamp on CHO cells stably expressing hERG).
human ether-à-go-go-related gene (hERG) potassium channel, sequence (Q12809 whole entry, looked up): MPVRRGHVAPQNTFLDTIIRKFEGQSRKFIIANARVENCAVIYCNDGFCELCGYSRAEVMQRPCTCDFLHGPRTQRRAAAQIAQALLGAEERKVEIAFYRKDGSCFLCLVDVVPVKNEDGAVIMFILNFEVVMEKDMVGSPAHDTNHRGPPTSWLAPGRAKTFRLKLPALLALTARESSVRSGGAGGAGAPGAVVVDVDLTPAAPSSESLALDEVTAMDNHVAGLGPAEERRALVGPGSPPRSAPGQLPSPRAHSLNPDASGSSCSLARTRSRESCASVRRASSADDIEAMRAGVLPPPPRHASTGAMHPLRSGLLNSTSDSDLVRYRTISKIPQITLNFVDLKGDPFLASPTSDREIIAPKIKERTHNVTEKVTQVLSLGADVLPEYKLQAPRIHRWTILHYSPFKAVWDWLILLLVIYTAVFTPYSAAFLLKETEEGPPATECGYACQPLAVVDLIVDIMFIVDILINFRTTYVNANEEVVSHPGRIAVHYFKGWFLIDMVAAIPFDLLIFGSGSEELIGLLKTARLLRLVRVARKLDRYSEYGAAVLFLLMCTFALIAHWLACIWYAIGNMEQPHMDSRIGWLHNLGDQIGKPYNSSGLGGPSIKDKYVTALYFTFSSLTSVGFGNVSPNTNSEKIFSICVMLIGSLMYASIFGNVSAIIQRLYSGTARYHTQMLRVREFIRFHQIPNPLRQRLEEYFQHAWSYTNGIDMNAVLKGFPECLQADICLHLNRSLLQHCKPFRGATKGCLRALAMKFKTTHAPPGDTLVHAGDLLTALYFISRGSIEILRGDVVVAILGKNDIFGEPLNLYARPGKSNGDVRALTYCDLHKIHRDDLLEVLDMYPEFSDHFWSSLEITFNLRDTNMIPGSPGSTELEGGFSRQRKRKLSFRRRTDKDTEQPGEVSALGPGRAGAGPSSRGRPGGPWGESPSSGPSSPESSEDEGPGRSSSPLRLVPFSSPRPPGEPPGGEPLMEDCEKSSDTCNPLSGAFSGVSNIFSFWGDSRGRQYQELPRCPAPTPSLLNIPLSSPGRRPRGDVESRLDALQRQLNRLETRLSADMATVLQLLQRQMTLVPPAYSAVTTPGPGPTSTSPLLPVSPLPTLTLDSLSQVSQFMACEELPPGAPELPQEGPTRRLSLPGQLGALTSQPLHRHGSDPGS

| Compound | hERG current change (%, negative = inhibition) at 1uM [%] |
| --- | --- |
| CCOC(=O)CN1C(=O)C(=O)N(Cc2c(F)cccc2Cl)C1=O | 15.6 |
| COc1ccc(OC)c(NC(=O)N2CCCC(C(=O)c3ccccc3OC)C2)c1 (centres unmarked) | 12.1 |
| Cc1ccc(-c2nc3sc4c(c3c(=O)n2N)CCCC4)cc1 | 4.46 |
| CCOC(=O)Nc1cc(C)c(Cl)cc1OC | 9.73 |
| COCCCn1nnnc1SCC(=O)Nc1nc(C)c(C)s1 | 9.16 |
| CC(C)Cc1csc(NC(=O)c2ccc(F)cc2)c1C(=O)O | 3.83 |
| COc1ccccc1NC(=O)C(C)OC(=O)CC1CCCCC1 (centres unmarked) | 8.31 |
| O=C1CCSc2ccc(Cl)cc2N1Cc1ccccc1 | 7.91 |
| CC12CCC(C(=O)Nc3cc(Cl)ccc3Cl)(C(Br)C1=O)C2(C)C (centres unmarked) | 4.75 |
| CC1=NNC(=O)C1C(c1cccc(O)c1)C(C#N)C#N (centres unmarked) | 12.3 |
| CC1=C(C)[N+](=O)C2CCCCC2N1[O-] (centres unmarked) | -5.54 |
| O=C(c1ccc(-c2ccc(Cl)cc2)o1)N1CCN(c2ccc([N+](=O)[O-])cc2Cl)CC1 | 2.72 |
| Cc1cccc(NC(=O)c2cccnc2)c1 | 12.3 |
| COC(=O)CCCC1=CC2=CC(=O)C(C)(OC(=O)CCc3ccccc3)C(=O)C2=CO1 (centres unmarked) | 9.14 |
| CC(C)OP(=O)(c1ccc(N(C)C)cc1)C(Nc1ccccc1)c1cccnc1 (centres unmarked) | 2.08 |
| O=C1NCCCC1C(=O)Nc1ccccn1 (centres unmarked) | 18.8 |
| N=c1c(S(=O)(=O)c2ccccc2)cc2c(=O)n3ccccc3nc2n1CC1CCCO1 (centres unmarked) | -17 |
| CC1CC(NC(=O)c2c(O)nc3sccn3c2=O)CC(C)(C)C1 (centres unmarked) | 15.9 |
| NC(=O)c1oc2ccccc2c1NC(=O)CN1CCCCC1 | 16.2 |
| C/C(=N\NC(=O)CC1N=C(Cc2ccccc2)NNC1=O)c1ccncc1 (centres unmarked) | 12.9 |
| CN1CCN(S(=O)(=O)c2ccc(NCc3ccc4c(c3)OCO4)nc2)CC1 | 10.3 |
| CCc1ccc(CN(C)C(=O)CC2C(=O)NCCN2Cc2ccoc2)cc1 (centres unmarked) | 15.6 |
| COc1ccc(CC(=O)Nc2c(C(=O)N3CCN(c4ncccn4)CC3)oc3ccccc23)cc1OC | -12.8 |

| Compound | hERG current change (%, negative = inhibition) at 1uM [%] |
| --- | --- |
| Cc1ccc(C(=O)COC(=O)CNC(=O)CN2C(=O)c3ccccc3C2=O)cc1 | 21.3 |
| O=C(CCn1nnc(-c2cccs2)n1)NCc1ccccc1Cl | 2.19 |
| Cl.OC(COC(c1ccc(Cl)cc1)c1ccc(Cl)cc1)CN1CCN(c2ccccn2)CC1 (centres unmarked) | -79.7 |
| Cc1ccccc1CC(=O)Nc1ccc(C(=O)N2CCCC2)cc1 | 17.7 |
| O=C(CN1C(=O)NC2(CCSC2)C1=O)NCc1ccccc1 (centres unmarked) | 15.9 |
| CN(C)S(=O)(=O)c1ccc(Cl)c(NC(=O)COC(=O)/C=C/c2ccco2)c1 | 10.7 |
| CCCC12CN3CC(C)(CN(C1)C3c1ccc3c(c1)OCO3)C2=O (centres unmarked) | 0.932 |
| Cc1ccc(OS(=O)Nc2cccc3nccnc23)cc1 (centres unmarked) | 4.7 |
| CNC(=S)N(Cc1ccc(OC)cc1)Cc1cc2cccc(C)c2[nH]c1=O | -0.131 |
| COc1cc(C(=O)Nc2ccc3oc(-c4cccnc4)nc3c2)cc(OC)c1OC | 2.93 |
| Cc1ccc(CNC(=O)COC(=O)CCOc2ccc(C)cc2)cc1 | 3.65 |
| CC(C)C[C@H](NC(=O)c1nc[nH]c1C(=O)NC1CC[NH2+]CC1)C(=O)OC(C)(C)C.[Cl-] | 19.8 |
| Nc1cccnc1Sc1ccc(Cl)cc1 | 4.34 |
| Cc1c(C)c2ccc(OCC(=O)N3CC[C@@]4(O)CCCC[C@H]4C3)c(C)c2oc1=O | 15.9 |
| O=C(Cn1c(=S)[nH]c2ccccc2c1=O)N1CCN(c2ccccc2)CC1 | 11.6 |
| O=C(Nc1cccc(F)c1)/C(=C/c1ccco1)NC(=O)c1ccco1 | 10.3 |
| Cc1cc(C)cc(NC(=O)C2CCCN(S(=O)(=O)c3ccc4[nH]c(=O)ccc4c3)C2)c1 (centres unmarked) | -3.82 |
| Cc1ccc(C(C)C)cc1NC(=O)Nc1ccc([N+](=O)[O-])cc1 | 5.3 |
| CSc1nsc(SCC(=O)Nc2cccc(NC(C)=O)c2)n1 | 9.84 |
| COc1ccc(C2=Nn3c(nnc3-c3ccccn3)SC2)cc1OC | -5.62 |
| CN(C(=O)Nc1cnc2ccccc2c1)c1ccccc1 | 7.98 |
| CCn1c2ccccc2c2nnc(SCCN3CCOCC3)nc21 | 12.9 |
| O=C(COc1ccc(Cl)cc1Cl)NC(=S)Nc1ccccc1C(=O)O | 16.7 |

| Compound | hERG current change (%, negative = inhibition) at 1uM [%] |
| --- | --- |
| Cc1ccccc1C(=O)Nc1ccc(N2CCN(C(=O)c3ccco3)CC2)cc1 | 13.3 |
| Cc1ccc(S(=O)(=O)N(CC(=O)Nc2ccccc2C(=O)O)c2cccc(Cl)c2C)cc1 | 10.3 |
| Cc1nc2ccccc2n1CC(=O)NCCN1CCCC1 | -3.02 |
| O=C(O)c1cccc(NC(=S)N/N=C/c2cccnc2)c1 | 10.6 |
| COc1ccc(-n2c(CNC(=O)c3cccs3)n[nH]c2=S)cc1 | 14.8 |
| CC1CCCCC1NC(=O)COC(=O)c1c2c(nc3ccccc13)/C(=C/c1ccco1)CC2 (centres unmarked) | -0.0827 |
| Cc1ccc(CN2CC(C(=O)N3CCN(c4ccccc4O)CC3)CC2=O)cc1 (centres unmarked) | -1.84 |
| O=C(CN1CCN(C(=O)c2cncn2-c2ccccc2)CC1)Nc1ccccc1Cl | -83.4 |
| CC(=O)Nc1cccc(OC(=O)c2ccoc2C)c1 | 5.22 |
| CCCn1c(SCC(=O)NCc2cccs2)nc2c1c(=O)n(C)c(=O)n2C | 11.7 |
| OCCCn1c(-c2ccccc2)n[nH]c1=S | 4.21 |
| COc1cc(C(=O)NC(=S)Nc2nccs2)cc(OC)c1OC | 0.0315 |
| O=C(C1=C[C@H](C2CC2)C[C@H](OCc2ccc(CO)cc2)O1)N1CCOCC1 | 14.7 |
| O=c1c2[nH]c3ccccc3c2ncn1Cc1ccncc1 | -0.66 |
| COc1ccc(N2C(=O)NC3CC2(C)Oc2ccc(Br)cc23)cc1OC (centres unmarked) | 4.62 |
| Cn1c(-c2ccc(Cl)nc2)nc2cc(Cl)ccc21 | 7.98 |
| O=C1c2ccccc2C(=O)N1Cc1nc(-c2ccccc2)no1 | 11.1 |
| O=C(OCC(=O)N(Cc1ccccc1)C1CCS(=O)(=O)C1)c1cc2c(s1)CCCC2 (centres unmarked) | 13.2 |
| S=C1NCN(Cc2cccnc2)CN1c1cccc(Cl)c1 | 11.2 |
| Cc1occc1-c1nnc(SCC(=O)Nc2nccs2)n1CCc1ccccc1 | -18.1 |
| CCCOC(=O)c1c(-c2ccc(C)cc2C)csc1NC(=O)C1C2CCC(O2)C1C(=O)O (centres unmarked) | 6.33 |
| CSc1cccc(NC(=O)CCNC(=O)c2ccco2)c1 | 11.8 |
| COc1ccc(-c2nc(CN3CCN(C(=O)c4ccco4)CC3)c(C)o2)c(OC)c1C | -4.61 |

| Compound | hERG current change (%, negative = inhibition) at 1uM [%] |
| --- | --- |
| Cc1ccc(C(=O)c2cc3c(cc2N)OCCO3)cc1 | -0.18 |
| Cc1c(NC(=O)COC(=O)COc2ccc(Nc3ccccc3)cc2)c(=O)n(-c2ccccc2)n1C | 9.13 |
| CC(C)N1CC=C(c2c[nH]c3ccccc23)CC1 | 8.75 |
| Cc1ccc(OC/C(O)=C(\C#N)c2nc3ccccc3s2)cc1 | 9.87 |
| CC1CCN(CC(=O)N2c3ccccc3CC2C)CC1.Cl (centres unmarked) | 6.09 |
| O=C(COC(=O)C1CCCC1)NCc1ccc(Cl)cc1 | 11.1 |
| COC(=O)CNC(=O)CCC(=O)N1CCN(C(c2ccccc2)c2ccccc2)CC1 | -6.81 |
| CCOC(=O)C1CCCN(C(=O)CCNS(=O)(=O)c2ccc3c(c2)CCC(=O)N3)C1 (centres unmarked) | 7.22 |
| CCC(c1ccccc1)c1nc(-c2cccnc2)no1 (centres unmarked) | -5.3 |
| Cc1ccc(S(=O)(=O)Oc2ccccc2/C=N/N=C(N)N)cc1 | 2.11 |
| CCc1cccc(CC)c1NC(=O)Cn1c(-c2ccccc2Cl)nc2ccccc21 | 9.42 |
| CCCc1nnc(NC(=O)CCC(=O)N2CCN(CCn3c(C)ccc3C)CC2)s1 | 10.3 |
| N/C(=N\OC(=O)CN1C(=O)c2ccccc2C1=O)c1ccc(Br)cc1 | 13.4 |
| Cc1cc(C(=O)Nc2cccc(S(=O)(=O)N3CCCC3)c2)c2ccccc2n1 | 15.1 |
| Brc1cccc(CN2CCCCCCC2)c1 | 1.65 |
| Cc1ccc(S(=O)(=O)Nc2nc3c(s2)C(=O)CC(C)(C)C3)cc1 | 14.8 |
| CCS(=O)(=O)N1CCC(C(=O)Nc2cc(Cl)ccc2O)CC1 | 12.3 |
| CCCOc1ccc(C(=O)Nc2ccc(S(=O)(=O)Nc3onc(C)c3C)cc2)cc1 | 13 |
| Cn1c(NC(=O)c2ccco2)c(-c2ccc(Cl)cc2)c(=O)c2ccccc21 | 19.6 |
| CCc1cc(=O)[nH]c(SCc2cccc3ccccc23)n1 | 9.36 |
